PubChem BioAssay (Tox21)
Values joined by “and” are separate entries in the source; they are usually repeats but may differ in a detail not shown here. Equal entries are not always repeated. This list was built around the results that the source calls inconclusive (neither active nor inactive); the mix of calls is not that of the screen. For some of these results: Where the call is inconclusive, the potency comes from a doubtful curve fit. Active and inactive are the calls of the source. Unless noted, calls follow the shape of the dose curve; as a rule, active = well fitted curve in the direction sought with a large enough effect in the repeat runs; inconclusive = weak or mixed curves; inactive = no such curve, though single readings can be large; an effect the other way counts as inactive or inconclusive.

Experiments:
[1] = qHTS assay to identify small molecule antagonists of the estrogen related receptor (ERR) signaling pathway from Tox21 library - cell viability counter screen (AID 1224834); settings: ERR reporter cells viability, CellTiter-Fluor, 17.5 h; series mostly up to 92.4 µM; also: nearly all actives have a fitted effect of over 30% in size; also: potency is read from the fitted curve at half-maximal effect
Method in brief: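 Viability readout (CellTiter-Fluor fluorescence, 30 min at 37 C) multiplexed with the ERR assay; cells treated 17.5 h at 37 C with compounds delivered in DMSO.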

[2] = qHTS assay to identify small molecule antagonists of the estrogen related receptor signaling pathway with the pleiotropic PPARgamma coactivator (PGC) from Tox21 10K library - cell viability counter screen (AID 1224840; active = well fitted cell-killing curve with a large enough effect in the repeat runs, not every such curve was filed as active; inconclusive = weak or mixed curves, or effect the other way; inactive = no such curve, though single readings can be large or run the other way; also: potency is read from the fitted curve at half-maximal effect; nearly all actives have a fitted effect of over 40% in size); settings: PGC/ERR reporter cells viability, CellTiter-Fluor, 17.5 h; series mostly up to 92.4 µM
Method in brief: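 Compounds in DMSO, alongside positive and negative controls, were pinned onto PGC/ERR cells (2,000 per well). Exposure lasted 17.5 hours at 37 C, followed by a 30-minute CellTiter-Fluor incubation and fluorescence reading.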

[3] = target: Thyrotropin receptor (Homo sapiens) (UniProt P16473); experiment: qHTS assay to identify small molecule agonists of the thyroid stimulating hormone receptor (TSHR) signaling pathway (AID 1224843; calls by dose curve; also: nearly all actives have a fitted effect of over 45% in size; also: potency is read from the fitted curve at half-maximal effect; as to activation: % is scaled to controls: 0 for no effect and ±100 for the full control effect); settings: TSHR-HEK293 cells, cAMP HTRF, agonist mode, 30 min; activation: at 92.4 µM (top of the series) unless noted
Method in brief: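 HEK293 cells stably bearing the thyrotropin receptor were plated at 800 cells/well and challenged with compound (30 min, RT). Accumulated cAMP was quantified via cAMP-d2 competing for cryptate-tagged antibody.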

[4] = qHTS assay to identify small molecule agonists of the hypoxia (HIF-1) signaling pathway - cell viability counter screen (AID 1224844; calls by dose curve; also: potency is read from the fitted curve at half-maximal effect; nearly all actives have a fitted effect of over 50% in size); settings: HRE-bla ME-180 viability, CellTiter-Glo luminescence, 17 h; series mostly up to 76.8 µM
Method in brief: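 Luminescent ATP content (CellTiter-Glo, 30 min, room temperature) served as the viability measure in HRE-bla ME-180 cells exposed to compounds for 17 hrs in low-serum medium (0.5% dialyzed FBS).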

[5] = qHTS assay to identify small molecule agonists of H2AX (AID 1224845; active = well fitted activation curve with a large enough effect in the signal ratio in the repeat runs, not every such curve was filed as active; inconclusive = weak or mixed curves; the % refers to the signal ratio; also: potency is read from the fitted curve at half-maximal effect; as to activation (H2AX phosphorylation): % is scaled to controls: 0 for no effect and ±100 for the full control effect); settings: CHO-K1 phospho-H2AX Ser139 HTRF, 3 h; activation (H2AX phosphorylation): at 154 µM (top of the series) unless noted
Method in brief: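 Phospho-H2AX Ser139 measured by HTRF (ex 320 nm; em 665 and 620 nm) after 24 hr antibody incubation. Compounds, 15 concentrations, 0.76% DMSO, were applied to CHO-K1 cells for 3hr at 37C before lysis.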

[6] = qHTS RealTime-Glo MT Cell Viability Assay in HEK293 cells - 32 hour (AID 1224868); settings: RealTime-Glo luminescence; series mostly up to 76.8 µM; also: nearly all actives have a fitted effect of over 50% in size; also: potency is read from the fitted curve at half-maximal effect
Method in brief: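 Cells + reagent dispensed (600 cells/well, HEK293) → 5 h at 37 C/5% CO2 → 23 nL compound in DMSO pinned → 40 h at 37 C → luminescence read at 0, 8, 16, 24, 32, 40 h.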

[7] = target: Nuclear receptor subfamily 1 group I member 3 (Homo sapiens) (UniProt Q14994); experiment: qHTS assay to identify small molecule agonists of the constitutive androstane receptor (CAR) signaling pathway (AID 1224839); settings: HepG2 hCAR CYP2B6-luciferase, agonist mode, 24 h; series mostly up to 92.4 µM; also: nearly all actives have a fitted effect of over 15% in size; also: potency is read from the fitted curve at half-maximal effect;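 as to activation: HepG2 cells stably carrying human CAR and a CYP2B6 luciferase reporter; % is scaled to controls: 0 for no effect and ±100 for the full control effect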
Method in brief: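 Stable hCAR/CYP2B6-2.2kb HepG2 line in DMEM with 10% FBS; compounds (15 concentrations) and 0.75 uM PK11195 final, 24 h at 37 C/5% CO2, then ONE-Glo luminescence after 30 min.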

[8] = target: Nuclear receptor subfamily 1 group I member 3 (Homo sapiens) (UniProt Q14994); experiment: qHTS assay to identify small molecule antagonists of the constitutive androstane receptor (CAR) signaling pathway (AID 1224838); settings: HepG2-CYP2B6-hCAR luciferase, CITCO-stimulated, 24 h; series mostly up to 92.4 µM;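 also: HepG2 cells stably expressing hCAR with CYP2B6 luciferase reporter stimulated by CITCO; potency is read from the fitted curve at half-maximal effect; nearly all actives have a fitted effect of over 40% in size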
Method in brief: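 Quantitative HTS in double-stable HepG2-CYP2B6-hCAR cells. After 4 h plating, cells get compound (15 concentrations) and CITCO at 50 nM final, incubate 24 h at 37 C, then ONE-Glo luminescence is read.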

[9] = qHTS assay to identify small molecule agonists of H2AX - cell viability counter screen (AID 1224847; calls by dose curve; also: potency is read from the fitted curve at half-maximal effect; nearly all actives have a fitted effect of over 30% in size); settings: CHO-K1 viability, CellTiter-Glo luminescence, 3 h; series mostly up to 154 µM
Method in brief: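 Viability of CHO-K1 (wild type) cells after 3 hr compound exposure was measured by CellTiter-Glo luminescence.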

[10] = qHTS assay to identify small molecule antagonists of the estrogen related receptor signaling pathway with the pleiotropic PPARgamma coactivator (PGC) from Tox21 10K library (AID 1224841; call rule not given here; also: potency is read from the fitted curve at half-maximal effect; actives are mostly falling curves and most rising ones were filed inactive; nearly all actives have a fitted effect of over 50% in size); settings: PGC/ERR reporter cell line, ONE-Glo luciferase, 18 h; series mostly up to 92.4 µM
Method in brief: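 Compound exposure ran 18 hours at 37 C in PGC/ERR cells (2,000/well) that had first rested 6 hours in a 37 C/5% CO2 incubator. Luciferase activity was then detected with One-Glo after a 30-minute room-temperature step.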

[11] = qHTS assay to identify small molecule agonists of the hypoxia (HIF-1) signaling pathway (AID 1224846; active = well fitted activation curve with a large enough effect in the signal ratio in the repeat runs, not every such curve was filed as active; inconclusive = weak or mixed curves; the % refers to the signal ratio; also: potency is read from the fitted curve at half-maximal effect; as to activation: % is scaled to controls: 0 for no effect and ±100 for the full control effect); settings: HRE-bla ME-180 cells, beta-lactamase ratio, 17 h; activation: at 76.8 µM (top of the series) unless noted
Method in brief: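 Measured by blue/green FRET after loading CCF4-AM: beta-lactamase expressed from a hypoxia response element in ME-180 cells. Test agents were delivered in DMSO and left 17 hrs; cells had been plated 5 hrs earlier in low-serum (0.5% dialyzed FBS) medium.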

[12] = qHTS assay to identify small molecule antagonists of the estrogen related receptor (ERR) signaling pathway from Tox21 library (AID 1224848); settings: ERR reporter cell line, luciferase antagonist mode, 18 h; series mostly up to 92.4 µM; also: potency is read from the fitted curve at half-maximal effect; nearly all actives have a fitted effect of over 50% in size
Method in brief: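 Reading was by luminescence 30 min after ONE-Glo addition. Before that, ERR cells at 2,000 per well had rested 6 h at 37 C/5% CO2 and then received pin-tooled compounds in DMSO for 18 h at 37 C.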

[13] = qHTS assay to identify small molecule agonists of the estrogen related receptor signaling pathway with the pleiotropic PPARgamma coactivator (PGC) from Tox21 10K library (AID 1224842); settings: PGC/ERR reporter cell line, luciferase ONE-Glo, 18 h; series mostly up to 42.5 µM; also: potency is read from the fitted curve at half-maximal effect; nearly all actives have a fitted effect of over 15% in size
Method in brief: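 Luminescence from One-Glo (30 min, room temperature) measured after PGC/ERR cells had 18 h at 37 C with pinned compound (23 nL in DMSO). Cells had been seeded at 2,000 per well and pre-incubated 6 h.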

[14] = qHTS assay to identify small molecule agonists of the estrogen related receptor (ERR) signaling pathway from Tox21 library (AID 1224849; calls by dose curve; also: % is scaled to controls: 0 for no effect and ±100 for the full control effect; nearly all actives have a fitted effect of over 15% in size); settings: ERR reporter cell line, ONE-Glo luciferase, 18 h; at 92.4 µM (top of the series) unless noted
Method in brief: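 We plated ERR reporter cells, waited 6 h, added compounds in DMSO by pin tool and incubated them 18 h at 37 C. ONE-Glo was then added and luminescence read after 30 min.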

[15] = qHTS RealTime-Glo MT Cell Viability Assay in HepG2 cells - 24 hour (AID 1224867); settings: RealTime-Glo luminescence; series mostly up to 76.8 µM
Method in brief: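 Real-time, nonlytic viability: 600 HepG2 cells/well mixed with NanoLuc enzyme plus prosubstrate; 5 h settle, compound (DMSO) added by pintool; luminescence monitored over 40 h at 37 C.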
Tags tell the direction and shape of the fitted curve or compound fluorescence and quenching.

UniProt P16473, sequence (P16473 whole entry, looked up): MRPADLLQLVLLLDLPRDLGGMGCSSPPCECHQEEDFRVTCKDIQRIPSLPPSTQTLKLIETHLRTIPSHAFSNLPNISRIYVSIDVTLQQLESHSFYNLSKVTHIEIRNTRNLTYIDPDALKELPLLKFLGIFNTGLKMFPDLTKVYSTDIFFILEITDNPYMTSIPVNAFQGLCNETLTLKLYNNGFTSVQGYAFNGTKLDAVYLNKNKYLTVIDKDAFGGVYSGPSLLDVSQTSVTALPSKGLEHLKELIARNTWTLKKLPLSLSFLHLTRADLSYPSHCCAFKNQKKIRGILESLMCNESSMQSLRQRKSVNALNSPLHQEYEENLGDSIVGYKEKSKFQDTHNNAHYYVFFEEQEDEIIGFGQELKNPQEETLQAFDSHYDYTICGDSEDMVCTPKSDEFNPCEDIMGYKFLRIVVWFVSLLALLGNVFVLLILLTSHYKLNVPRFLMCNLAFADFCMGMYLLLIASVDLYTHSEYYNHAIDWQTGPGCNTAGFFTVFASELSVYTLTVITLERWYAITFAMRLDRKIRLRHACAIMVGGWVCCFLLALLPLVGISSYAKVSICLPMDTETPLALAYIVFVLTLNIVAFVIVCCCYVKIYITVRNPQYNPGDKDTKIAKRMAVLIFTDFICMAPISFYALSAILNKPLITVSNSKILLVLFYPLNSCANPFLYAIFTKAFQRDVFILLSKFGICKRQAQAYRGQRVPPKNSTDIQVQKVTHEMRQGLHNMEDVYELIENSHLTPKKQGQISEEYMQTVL
UniProt Q14994, sequence (Q14994 whole entry, looked up): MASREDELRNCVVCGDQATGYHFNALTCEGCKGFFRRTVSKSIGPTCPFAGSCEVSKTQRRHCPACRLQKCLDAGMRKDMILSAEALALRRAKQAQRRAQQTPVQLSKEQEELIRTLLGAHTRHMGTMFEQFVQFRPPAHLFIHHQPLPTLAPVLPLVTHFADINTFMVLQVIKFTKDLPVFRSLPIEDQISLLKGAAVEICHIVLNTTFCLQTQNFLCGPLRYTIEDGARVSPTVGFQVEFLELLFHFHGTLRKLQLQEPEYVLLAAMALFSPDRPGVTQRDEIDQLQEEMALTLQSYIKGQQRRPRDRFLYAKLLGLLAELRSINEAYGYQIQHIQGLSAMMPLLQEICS

## C=C[C@@]1(C)CC(=O)[C@]2(O)[C@@]3(C)[C@@H](O)CCC(C)(C)[C@@H]3[C@H](O)[C@H](OC(C)=O)[C@@]2(C)O1
[1]
  Potency: inconclusive: 19.3 µM [cytotoxic] and inconclusive: 18.8 µM [cytotoxic, partial curve]
[2]
  Potency: inconclusive: 54.5 µM [cytotoxic, partial curve]
[3]
  Potency: active: 17.2 nM and active: 18.8 nM
[4]
  Potency: active: 38.9 µM and inconclusive: 19 µM [cytotoxic, partial curve]
[5]
  Potency: inactive
[6]
  Potency: inconclusive: 49 µM [cytotoxic, single point]

## Nc1cccc(N)c1
[1]
  Potency: inactive
[7]
  Potency: inconclusive: 61 µM [activator, single point] and inactive
[6]
  Potency: inactive

## C[C@]12CC[C@H]3[C@@H](CCC4=CC(=O)CC[C@@]43C)[C@@H]1CC[C@@H]2C(=O)CO
[1]
  Potency: inconclusive: 48.6 µM [cytotoxic, partial curve]
[8]
  Potency: inconclusive: 24.3 µM [inhibitor, partial curve]
[9]
  Potency: inconclusive: 101 µM [cytotoxic]
[6]
  Potency: inconclusive: 21.3 µM [cytotoxic, partial curve]

## CCCCCCCCCCCCCCCCCCOS(=O)(=O)O
[1]
  Potency: inconclusive: 48.6 µM [cytotoxic, partial curve]
[2]
  Potency: inconclusive: 77 µM [cytotoxic]
[10]
  Potency: inconclusive: 68.6 µM [falling, single point]
[3]
  Potency: inconclusive: 17.2 µM [inhibitor, full curve, poor fit]
[11]
  Potency: inconclusive: 49 µM [falling, partial curve]
[9]
  Potency: inconclusive: 127 µM [cytotoxic]
[12]
  Potency: inconclusive: 61.1 µM [inhibitor]
[6]
  Potency: inconclusive: 61.6 µM [cytotoxic, partial curve, poor fit]

## O=C(CCCN1CCC(O)(c2cccc(C(F)(F)F)c2)CC1)c1ccc(F)cc1
[1]
  Potency: inactive
[10]
  Potency: inconclusive: 29.8 µM [falling, partial curve]
[6]
  Potency: active: 19 µM

## CN1CCC(=C2c3ccccc3CCc3sccc32)CC1
[1]
  Potency: inconclusive: 33.5 µM [cytotoxic, single point]
[2]
  Potency: inconclusive: 18.8 µM [cytotoxic, partial curve]
[4]
  Potency: active: 16.9 µM
[6]
  Potency: inconclusive: 26.8 µM [cytotoxic, single point]

## C#C[C@]1(O)CC[C@H]2[C@@H]3CCc4cc(OC)ccc4[C@H]3CC[C@@]21C
[1]
  Potency: inconclusive: 30.6 µM [cytotoxic, full curve]
[13]
  Potency: inconclusive: 54.5 µM [activator, partial curve] and inconclusive: 26.6 µM [activator, partial curve]
[3]
  Potency: active: 19.3 µM and inconclusive: 9.44 µM [activator, full curve]
[5]
  Potency: inconclusive: 1.1 µM [falling, single point]
[9]
  Potency: active: 45 µM and inconclusive: 55.2 µM [cytotoxic, single point]
[12]
  Potency: inconclusive: 21.7 µM [inhibitor, full curve]

## CCCCC/C=C\C/C=C\CCCCCCCC(=O)NC(C)c1ccccc1 (centres undefined)
[1]
  Potency: inconclusive: 29.8 µM [cytotoxic]
[10]
  Potency: inconclusive: 18.8 µM [falling, partial curve]
[12]
  Potency: active: 18.8 µM

## COc1c(C)c2c(c(O)c1C/C=C(\C)CCC(=O)O)C(=O)OC2
[1]
  Potency: inconclusive: 1.19 µM [cytotoxic, full curve]
[4]
  Potency: active: 0.151 µM
[5]
  Potency: active: 0.875 µM
[14]
  activity change, positive = activation: inconclusive: -19.7% [at 42.5 µM]
[15]
  Potency: inactive
[6]
  Potency: inconclusive: 1.69 µM [cytotoxic, full curve]

## CCCC(=O)O
[1]
  Potency: inactive
[3]
  Potency: inactive
[4]
  Potency: inconclusive: 17.4 µM [cytotoxic, partial curve, poor fit]
[11]
  Potency: inactive

## CCC(C)CCCC(C)(C)O (centres undefined)
[1]
  Potency: inactive
[5]
  Potency: inactive
